Assay results taken from PubChem BioAssay AID1508642 (National Center for Advancing Translational Sciences (NCATS), 2021).
The campaign covered roughly 43,000 compounds. About 200 (0.47%) were called active. Another 12% or so got no clear call; they are omitted. Calls come from the whole dose curve; as a rule, active = well fitted cell-killing curve with a large enough effect; inconclusive = small, poorly fitted or top-dose-only effect, or effect the other way; inactive = flat fitted curve, though single readings scatter. Some of the results follow.

Assay: Cell viability qHTS assay in S16 Pmp22-F2sN cells; note: nearly all actives have a fitted effect of over 65% in size
Details: S16 Pmp22-F2sN Schwann cells (luciferase reporters placed in the Pmp22 gene) viability, CellTiter-Glo, 24 h; series mostly up to 57.5 µM; activity change, negative = cytotoxicity: at the top concentration
How it was run: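 Rat S16 Schwann reporter line, 24 h treatment with library compounds delivered at 23 nL per well. Cell viability by CellTiter-Glo luminescence.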
% is set by controls: 0 for no effect and ±100 for the full control effect.

Row | SMILES | activity change, negative = cytotoxicity
1 | CCC(CC)C(=O)N1CCc2cc(OC)c(OC)cc2C1COc1ccc(C(=O)OC)cc1 (centres undefined) | inactive: -4.61%
2 | COc1ccc(C)cc1NC(=O)CSc1nc(=O)[nH]c2c1CCCC2 | inactive: -20%
3 | CCOc1ccc(-n2c(=O)c3c4c(sc3n(CC(=O)NC(C)CC)c2=O)CCC4)cc1 (centres undefined) | inactive: 1.38%
4 | O=S(=O)(c1ccc(Cl)cc1)c1nnn2c1nc(NCc1cccs1)c1sccc12 | inactive: 8.16%
5 | CCOC(=O)c1ccc(N2C(=O)c3n[nH]c(-c4cccs4)c3C2c2cccc(OC)c2)cc1 (centres undefined) | inactive: -5.19%
6 | CN(C)S(=O)(=O)N(CC(=O)NCCSCc1cccc(Cl)c1)c1ccccc1 | inactive: 18.4%
7 | Cc1ccc(NC(c2nnc(-c3ccccc3)o2)c2ccccc2F)c([N+](=O)[O-])c1 (centres undefined) | inactive: -10.3%
8 | Cc1ccc(-n2nnnc2CNC(=O)c2ccccc2F)cc1C | inactive: -0.518%
9 | O=C(NCc1ccccc1Cl)c1ccc(CSCc2cccc(F)c2)o1 | inactive: -2.64%
10 | O=C(NCc1ccc(Cl)cc1)c1ccc2c(c1)NC(=O)C(CS(=O)(=O)Cc1ccccc1Cl)N2 (centres undefined) | inactive: -4.23%
11 | CCc1cccc(NC(=O)Cn2cc(C(=O)c3ccncc3)c(=O)c3cc(C)c(C)cc32)c1 | inactive: 1.72%
12 | O=C(O)CCn1cnc2onc(-c3ccccc3Cl)c2c1=O | inactive: 2.66%
13 | Cc1cccn2c(=O)cc(COc3ccc(NC(=O)c4cccc(F)c4)cc3)nc12 | inactive: -0.874%
14 | CCC1CCCCN1C(=O)Cn1c(=O)n(CCCCCC(=O)NCc2ccc(F)cc2)c(=O)c2sccc21 (centres undefined) | inactive: 17.9%
15 | O=C(Nc1c(C(=O)Nc2cccc(C(F)(F)F)c2)oc2ccccc12)c1cc(=O)c2ccccc2o1 | inactive: 5.69%
16 | CCSc1nc(-c2ccc(Cl)cc2)nc2c1Cc1c(CO)cnc(C)c1O2 | inactive: -14.9%
17 | CC1=C(c2ccc(Cl)cc2)S(=O)(=O)N=C1N1CCN(c2cccc(C(F)(F)F)c2)CC1 | inactive: -1.86%
18 | COc1ccc(-c2cc(C(F)(F)F)n3nc(C(=O)Nc4cccc(C(F)(F)F)c4)c(Br)c3n2)cc1 | inactive: 4.03%
19 | CCOC(=O)c1ccc(NC(=O)CCn2cnnn2)cc1 | inactive: 1.01%
20 | COC(=O)c1cnc(N2CCN(c3ccccc3OC)CC2)c2ccccc12 | inactive: -15.4%
21 | CCOC(=O)c1sc2ccccc2c1S(=O)(=O)NCc1ccc(F)cc1 | inactive: 2.25%
22 | CC(C)C(=O)Nc1cccc(NC2=NS(=O)(=O)c3ccccc32)c1 | inactive: 4.42%
23 | CCOC(=O)c1cccc(NC(c2nnc(-c3ccccc3)o2)c2ccccc2F)c1 (centres undefined) | inactive: -17.2%
24 | Cc1ccc(C)c(N2CCN(c3nc4ccccc4c4nc(-c5cccnc5)nn34)CC2)c1 | inactive: 16.9%

Row | SMILES | activity change, negative = cytotoxicity
25 | Cc1ccc2c(c1)c(=O)c(C(=O)c1ccncc1)cn2CC(=O)Nc1ccccc1Cl | inactive: 2.91%
26 | CCc1ccc(C2=CC(c3cccc(Br)c3)n3nnnc3N2)cc1 (centres undefined) | inactive: -3.93%
27 | COc1ccc(CCNC(=O)CCCCCn2c(=O)[nH]c3cc(OC)c(OC)cc3c2=O)cc1OC | inactive: 2.28%
28 | Cc1ccc(C)c(Cn2c(C)c(CNCc3ccc(F)cc3)c(C(=O)O)c2C)c1 | inactive: 6.81%
29 | CC(=O)Nc1nnc(SCc2cc(=O)c3cccc(C)c3[nH]2)s1 | inactive: -7.34%
30 | CC1=C(C(=O)Nc2ccc(C)cc2C)C(c2cccn2C)n2ncnc2N1 (centres undefined) | inactive: 6.17%
31 | COc1ccc(NC(=O)CSc2nc(O)c(C/C=C/c3ccccc3)c(=O)[nH]2)cc1 | inactive: -5.09%
32 | CCc1ccc(NC(=O)Cn2c(=O)oc3cc(S(=O)(=O)NCc4ccccc4)ccc32)cc1 | inactive: 14.3%
33 | Cc1ccc(CNC(=O)C2CCCN(c3nnc(-n4c(C)ccc4C)s3)C2)cc1 (centres undefined) | inactive: 1.54%
34 | CC(C)CCNc1nc2c(S(=O)(=O)c3ccc(Br)cc3)nnn2c2ccsc12 | inactive: 2.82%
35 | CCc1cc2c(cc3c(=O)n(CC(=O)N4CCN(c5cc(Cl)ccc5C)CC4)nc(CC)n32)s1 | inactive: 15.3%
36 | O=C(NCc1cccnc1)C(=O)NCC(c1cccnc1)N1CCN(c2ccccc2)CC1 (centres undefined) | inactive: -8.66%
37 | CCCCCCc1cc2cc(-c3nnc(-c4ccc(C)cc4)o3)c(=O)oc2cc1O | inactive: -0.356%
38 | CCOc1ccc(NC(=O)Cn2c(=O)n(CC3CCCO3)c(=O)c3ccccc32)cc1 (centres undefined) | inactive: -8.36%
39 | CCc1ccc(NC(=O)CSc2nc(C)cc(COC)c2C#N)cc1 | inactive: 7.15%
40 | CCc1ccc(-n2nc(C)c3c(C)cc(=O)n(CC(=O)NCc4ccc(C)cc4)c32)cc1 | inactive: 0.3%
41 | CCOc1ccc2nc(N3CCCC(C(=O)NCc4ccccc4Cl)C3)sc2c1 (centres undefined) | inactive: 2.43%
42 | O=C(NCc1ccccc1)C1CCN(C(=O)c2cnn(-c3ccccc3)c2-n2cccc2)CC1 | inactive: -3.39%
43 | C=Cc1ccc(Cn2c(=O)n(-c3ccc(C)cc3)c(=O)c3c2c2cc(OC)ccc2n3C)cc1 | inactive: -3.32%
44 | CN(C)CCNC(=O)CN1C(=O)CCn2nc(-c3cn(C)c4ccccc34)cc21 | inactive: -2.99%
45 | Cc1cc(C)cc(-n2nnc(-c3nsc(NC(=O)c4ccccc4Cl)n3)c2C)c1 | inactive: 11%
46 | CCc1ccc(NC(=O)Cn2ncc3c(C)n(Cc4cccc(Cl)c4)c(C)c3c2=O)cc1 | inactive: 8.85%
47 | COc1cccc(CNC(=O)c2ccc(-c3nc(CS(=O)(=O)c4ccccc4)c(C)o3)cc2)c1 | inactive: -29.7%
48 | CCC1CCCCN1C(=O)CSc1n[nH]c(-c2ccccc2Cl)n1 (centres undefined) | inactive: -0.231%

Row | SMILES | activity change, negative = cytotoxicity
49 | CCN(c1ccc(OC)cc1)S(=O)(=O)c1nnc(NC(=O)c2ccccc2C)s1 | inactive: -8.14%
50 | COC(=O)c1cc2sccc2n1Cc1nc(-c2cccc(Br)c2)oc1C | inactive: 1.71%
51 | CC(=O)Nc1ccc(S(=O)(=O)NCc2ccc(C(=O)NCc3ccc(Cl)cc3)cc2)cc1 | inactive: 18.6%
52 | O=C(Nc1ccc(C(F)(F)F)cc1)C1CCCN(S(=O)(=O)c2cccc3cccnc23)C1 (centres undefined) | inactive: -5.67%
53 | O=C(Cc1ccc(F)cc1)NCc1nc2cccnc2n1Cc1ccc(F)cc1 | inactive: -14.2%
54 | FC(F)(F)c1cccc(N2CCN(Cc3nnc(-c4ccc5c(c4)OCO5)o3)CC2)c1 | inactive: 5.78%
55 | Cc1ccccc1OCC(=O)Nc1ccc(OCc2cc(=O)n3ccsc3n2)cc1 | inactive: -0.557%
56 | CCOC(=O)c1cccc(NC(=O)N2CCC(CN3CCc4ccccc4C3)CC2)c1 | inactive: 11.1%
57 | NS(=O)(=O)c1ccc(CCNC(=O)c2ccc3nc(Cc4ccccc4)oc3c2)cc1 | inactive: 17.9%
58 | CCCc1cc(=O)oc2cc(C)c3c(-c4cccc(OC)c4)coc3c12 | inactive: 5.13%
59 | CC(C)(C)C1CCc2c(sc(NC(=O)CCC(=O)O)c2C(=O)Nc2ccccc2C(F)(F)F)C1 (centres undefined) | inactive: 7.75%
60 | CC1CCCN(Cc2nc3c(c(=O)n(C)c(=O)n3C)n2Cc2ccc(Cl)cc2Cl)C1 (centres undefined) | inactive: -2.39%
61 | COc1cccc(-c2nc(SCC(=O)NCC3CCCO3)c(-c3ccc(F)cc3)[nH]2)c1 (centres undefined) | inactive: 5.98%
62 | CCOC(=O)c1cccc(NC(=O)N2CC(CC)Sc3ccccc32)c1 (centres undefined) | inactive: 13.4%
63 | COc1ccc(CCNC(=O)C2CCN(c3ncnc4c3nc3n4CCCCC3)CC2)c(OC)c1 | inactive: -5.03%
64 | CCOc1ccc(S(=O)(=O)c2c[nH]c3ccccc3c2=O)cc1 | inactive: 4.09%
65 | Cc1ccccc1C(=O)Nc1ccc2nc(Nc3cccc(C(F)(F)F)c3)cc(C)c2c1 | inactive: -1.66%
66 | CCOC(=O)c1ccc(NC(=O)CSc2nccn2-c2ccc(OCC)cc2)cc1 | inactive: -14%
67 | FC(F)(F)c1cccc(-c2nnn3c2nc(NC2CCCCC2)c2ccccc23)c1 | inactive: -11.5%
68 | Cc1cccc(N2CCN(C(=O)Cn3cnc4sc(C)c(S(=O)(=O)N5CCN(c6ncccn6)CC5)c4c3=O)CC2C)c1 (centres undefined) | inactive: 18.3%
69 | CCC(C)NC(=O)C1CCN(C(=O)c2ccc(-n3ccc4ccccc43)s2)CC1 (centres undefined) | inactive: -8.02%
70 | COc1ccccc1CCNC(=O)Cc1c(C)c2c(cc(C)c3c(C)c(C)oc32)oc1=O | inactive: -3.45%
71 | Cc1cccc(-c2nc(CSCC(=O)N3CCN(c4ccccc4)CC3)c(C)o2)c1 | inactive: -5.16%
72 | COc1ccccc1Cc1nc2ccccc2nc1SCC(=O)N1CCc2ccccc21 | inactive: 9.8%

Row | SMILES | activity change, negative = cytotoxicity
73 | COc1ccccc1N1CCN(c2ccc(-c3nc(-c4ccccc4C)no3)cc2[N+](=O)[O-])CC1 | inactive: -0.0787%
74 | CCOc1ccc(CCNC(=O)c2cc(=O)[nH]c3ccc(S(=O)(=O)N4CCCCC4)cc23)cc1OCC | inactive: 7.99%
75 | CCOc1ccccc1CNC(=O)C1CCN(S(=O)(=O)c2c(C)noc2/C=C/c2ccc(C)cc2)CC1 | inactive: -16%
76 | COc1cccc(NC(=O)C(=O)NCCc2csc(-c3ccc(C(F)(F)F)cc3)n2)c1 | inactive: -1.44%
77 | COc1cc([N+](=O)[O-])ccc1NC(=O)N1CCN(c2cc(-c3noc(C)n3)ccc2C)CC1 | inactive: -2.51%
78 | COc1ccc(NC(=O)C(C)n2nnc3sc(-c4ccccc4)cc3c2=O)cc1Cl (centres undefined) | inactive: 1.51%
79 | CC(C)CC(=O)NCC1(N(C)C)CCCCC1 | inactive: -8.9%
80 | Cc1cccc(N(C)c2nc3ccc(C)cc3n3cnnc23)c1 | inactive: 16.6%
81 | CCCCOc1ccccc1C(=O)Nc1nonc1-c1ccccc1 | inactive: -27%
82 | COc1cc(OC)c(NC(=O)N2CCc3c(sc4c3CCCC4)C2c2ccccc2)cc1Cl (centres undefined) | inactive: 2.65%
83 | O=C(Nc1nnc(S(=O)(=O)N2CCCCCC2)s1)c1ccccc1Cl | inactive: -1.73%
84 | CCOc1ccc(NC(=O)c2cc3c(s2)-c2ccccc2OC3)cc1 | inactive: -0.0447%
85 | Cc1cccc(NC(=O)C(Cc2ccccc2)n2cccc2)c1C (centres undefined) | inactive: -0.664%
86 | Cc1nc(-c2ccccc2)sc1CCNC(=O)C(=O)Nc1ccc2c(c1)OCCO2 | inactive: 7.02%
87 | Cc1ccc(CNC(=O)CCCN2C(=O)c3cccnc3Oc3ccc(Cl)cc32)cc1 | inactive: -4.23%
88 | CNS(=O)(=O)c1cn(CC(=O)Nc2ccc(C)c(N(C)C)c2)cc1S(=O)(=O)NC | inactive: -0.981%
89 | CCN(C(=O)c1cc(S(=O)(=O)N2CCc3ccccc32)cn1C)c1cccc(C)c1 | inactive: 5.19%
90 | CC1=C(C(N)=O)C(c2ccc(F)cc2)n2nc(-c3ccc(N(C)C)cc3)nc2N1 (centres undefined) | inactive: -0.734%
91 | Cc1ccc(Cl)cc1N1CCN(C(=O)c2cccn2-c2nnc(N3CCCC3)s2)CC1 | inactive: -17.2%
92 | Cc1ccc2c(=O)c(C(=O)c3ccc(F)cc3)cn(CC(=O)NCc3ccccc3Cl)c2n1 | inactive: -3.62%
93 | Cc1ccc(-c2nn(CC(=O)NC3CCCCC3)c3c2cnc2ccccc23)cc1 | inactive: 7.57%
94 | CC(C)(C)OC(=O)N1CCC(c2c(C(=O)NCc3ccc4c(c3)OCO4)cnn2-c2ccccc2Cl)CC1 | inactive: -6.46%
